Reference: the supplement of paper PMC3334620
In all, about 33,000 sequences were measured (“E-score (-0.5 to 0.5)”: median about -0.021, highest 2% from about 0.32 on). Some of the results follow.

target: T1, Zap1 (UniProt P47043); experiment: PBM E-score (8-mer binding enrichment) (E-score (-0.5 to 0.5)); higher = stronger / more preferred TF binding; most listed sequences are background and not binding sites; details: protein concentration: 200 nM; construct: GST-full length
T1 sequence: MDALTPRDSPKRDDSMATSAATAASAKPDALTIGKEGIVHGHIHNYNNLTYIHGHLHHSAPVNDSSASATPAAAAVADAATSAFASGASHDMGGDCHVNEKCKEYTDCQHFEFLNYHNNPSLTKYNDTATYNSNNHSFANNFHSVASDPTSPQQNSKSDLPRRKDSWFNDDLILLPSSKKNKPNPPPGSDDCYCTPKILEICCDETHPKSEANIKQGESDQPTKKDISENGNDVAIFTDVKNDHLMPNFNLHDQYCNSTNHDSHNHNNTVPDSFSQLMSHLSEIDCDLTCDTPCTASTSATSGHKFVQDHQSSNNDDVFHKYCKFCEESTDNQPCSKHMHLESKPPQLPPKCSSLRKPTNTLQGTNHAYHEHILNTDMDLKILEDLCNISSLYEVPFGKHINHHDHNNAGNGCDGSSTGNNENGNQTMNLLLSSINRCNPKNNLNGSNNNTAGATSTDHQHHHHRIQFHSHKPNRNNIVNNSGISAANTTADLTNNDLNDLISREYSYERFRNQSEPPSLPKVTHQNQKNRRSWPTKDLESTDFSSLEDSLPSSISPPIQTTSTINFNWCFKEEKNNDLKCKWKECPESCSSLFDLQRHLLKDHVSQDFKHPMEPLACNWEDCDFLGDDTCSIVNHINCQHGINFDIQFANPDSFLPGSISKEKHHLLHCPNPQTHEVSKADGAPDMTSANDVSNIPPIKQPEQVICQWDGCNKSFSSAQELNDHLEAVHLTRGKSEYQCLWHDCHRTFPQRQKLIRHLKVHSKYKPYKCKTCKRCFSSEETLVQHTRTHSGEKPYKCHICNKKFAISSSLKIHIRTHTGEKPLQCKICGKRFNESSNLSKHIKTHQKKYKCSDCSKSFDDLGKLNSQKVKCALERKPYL
Outline: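 Yeast transcription factors carrying a GST tag, as full-length proteins or DNA-binding domains, were produced by PURExpress in vitro transcription/translation. About 100-200 nM protein was applied to universal all-10-mer Agilent arrays, double-stranded by primer extension on fresh or once-stripped slides. Bound protein was detected with fluorescent anti-GST, and scans were normalised with masliner. The Universal PBM Analysis Suite gave each ungapped eight-base word, pooled with its reverse complement, an E-score, a modified Wilcoxon-Mann-Whitney statistic.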

Sequence	PBM E-score
CATACAGA	0.0322
AAGTTCGA	0.0624
AAGCTTGT	0.15
CGAGCTTA	-0.117
CCTGATCC	-0.191
GCCGTCAA	-0.161
AGCGACAA	-0.0783
AAGGTTTG	0.176
GTTTGGCA	-0.0669
CTTCTGCC	-0.219
CCTATCTC	-0.031
GACGGCTC	-0.258
CTGGAGCA	-0.0643
TATGGCAA	-0.214
AAATACCC	0.328
GCTCGGCC	-0.218
GCAAAGCA	-0.231
CTATCGAC	-0.227
AATCGGGA	-0.0678
AGGGCTCA	-0.1
CTCCCGTC	-0.117
ACAGTACT	0.00174

Sequence	PBM E-score
GCCGAAAA	0.214
CTGTACGC	-0.236
CTAGTGCA	-0.117
AGTCAACT	-0.328
ACAAATTC	0.0554
CAATCGGC	-0.0345
CAGTATTC	-0.0283
CACAATAA	0.126
CCAAGCTC	0.137
GCCGCACC	0.0244
CCTGACAG	0.0346
TGTGCCAA	-0.0459
GCCAAACA	0.0567
GGCAACCA	0.116
AGATGAAG	-0.216
GCCTGTTA	-0.186
ACTCATGG	0.0485
AGGGGCTG	-0.0614
ATTTCTTC	0.0398
CCATTGCA	0.0104
ACTTACTG	-0.164
CCGTAGCC	-0.126

Sequence	PBM E-score
AGTTCTAC	-0.114
ACCGACCG	-0.0194
CTCGAACA	0.0432
CAATTGAC	-0.0961
CCACCGCC	0.0368
GAGACTCA	-0.0313
ATTTGGCA	0.0027
CTGCTTAA	0.0787
CCAGTTAG	0.00998
CTGCCCAG	-0.253
CAGCTAAG	-0.232
ACAACGTG	-0.0732
CTGAAGTA	0.0214
CGGCAACG	-0.256
GGCTAGAC	-0.184
CGGTAATC	0.119
CTATCCTA	-0.138
CTCCACAC	-0.128
ATGGTTAG	0.316
GCAAATCC	-0.0781
AGCATCCA	-0.117
GGGGAGCA	-0.395

Sequence	PBM E-score
CTGCAAAG	-0.132
AACCGGAG	0.255
GCCGCCAC	-0.122
CCACTTAA	0.0997
CCGCTTCC	-0.203
ACAGTTGC	0.0663
ATTTACCA	0.0973
AGGTGCTC	-0.177
CATCTACG	-0.0887
AAGAGATC	-0.252
AGCCCCAC	-0.11
AAACTCGC	-0.0708
CGTTCAAG	0.0598
GGGCTGGA	-0.17
ACAGTGGC	-0.0712
GCAGAGGA	-0.0972
CAGTAACG	0.0273
TACCTCGA	0.233
AACACAGT	-0.00444
TCCCATAA	0.182
